# Measured values published in article PMC4336329 (PLoS ONE, 2015).
# About 2,200 (0.71%) of roughly 310,000 compounds showed an effect of 50% or more. The effect is printed as a negative number. The list shows a part of the results.
# Molecular target: human ether-à-go-go-related gene (hERG) potassium channel (human, UniProt Q12809)
# Experiment: primary screen, population patch clamp on CHO cells stably expressing hERG
# human ether-à-go-go-related gene (hERG) potassium channel, sequence (Q12809 whole entry, looked up): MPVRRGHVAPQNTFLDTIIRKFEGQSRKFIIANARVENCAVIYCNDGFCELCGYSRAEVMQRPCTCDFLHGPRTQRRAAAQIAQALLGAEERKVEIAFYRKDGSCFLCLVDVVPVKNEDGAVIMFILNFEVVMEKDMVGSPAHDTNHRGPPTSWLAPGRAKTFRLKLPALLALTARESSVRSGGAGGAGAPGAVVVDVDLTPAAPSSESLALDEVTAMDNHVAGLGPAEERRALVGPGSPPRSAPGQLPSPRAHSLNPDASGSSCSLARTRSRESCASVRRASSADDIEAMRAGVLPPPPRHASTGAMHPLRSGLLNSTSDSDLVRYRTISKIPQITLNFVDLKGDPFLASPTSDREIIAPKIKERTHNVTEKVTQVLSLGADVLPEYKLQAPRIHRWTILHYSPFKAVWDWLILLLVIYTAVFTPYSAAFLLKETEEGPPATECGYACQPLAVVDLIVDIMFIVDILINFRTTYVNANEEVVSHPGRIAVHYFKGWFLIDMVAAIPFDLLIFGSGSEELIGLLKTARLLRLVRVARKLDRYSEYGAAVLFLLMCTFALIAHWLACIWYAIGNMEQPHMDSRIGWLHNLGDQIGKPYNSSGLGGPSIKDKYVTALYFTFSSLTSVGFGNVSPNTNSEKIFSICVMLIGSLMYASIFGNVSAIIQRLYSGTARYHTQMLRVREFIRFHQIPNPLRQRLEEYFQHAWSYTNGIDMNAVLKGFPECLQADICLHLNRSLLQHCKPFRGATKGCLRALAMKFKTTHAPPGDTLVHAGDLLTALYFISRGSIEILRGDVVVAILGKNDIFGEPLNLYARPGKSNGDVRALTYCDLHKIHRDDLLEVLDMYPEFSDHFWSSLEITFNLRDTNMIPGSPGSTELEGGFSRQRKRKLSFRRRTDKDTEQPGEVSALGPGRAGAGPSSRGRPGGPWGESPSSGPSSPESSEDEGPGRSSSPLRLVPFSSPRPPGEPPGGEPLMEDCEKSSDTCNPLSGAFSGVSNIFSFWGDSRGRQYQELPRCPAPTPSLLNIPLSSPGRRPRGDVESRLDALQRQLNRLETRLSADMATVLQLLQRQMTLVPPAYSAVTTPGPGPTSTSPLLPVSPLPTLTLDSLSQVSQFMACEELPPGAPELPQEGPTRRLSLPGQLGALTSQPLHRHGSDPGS
row,Compound,"hERG current change (%, negative = inhibition) at 1uM [%]"
1,O=C1CN(C(=O)CN2CCCCC2)C(c2ccccc2)c2cc(Br)ccc2N1 (stereo not drawn),-43.4
2,O=C(/C=C/Nc1ccccc1)c1ccc(Cl)cc1Cl,12.9
3,CN(c1cc(=O)n2ccccc2n1)C1CCCCC1,9.46
4,C[C@@H](NC(=O)[C@@H]1Cc2ccccc2CN1)C(=O)NCC1CCCO1 (stereo partly drawn),15.6
5,CCCCC(=O)Nc1nnc(S(=O)(=O)N(CC)c2ccc(OC)cc2)s1,7.09
6,CCOc1ccc(NC(=O)CN(C)C(=O)c2ccc(COc3ccccc3)cc2)cc1OCC,4.94
7,CCC(C(=O)Nc1cc(C)cc(C)n1)c1ccccc1 (stereo not drawn),6.28
8,COc1ccc(NC(=O)Nc2ccc(O)c3ccccc23)cc1,12.1
9,CCCCn1c(=NC(=O)c2ccco2)c(C(=O)OCC)cc2c(=O)n3cccc(C)c3nc21,-16.5
10,CCC(O)C1CCN(Cc2cn(-c3ccc(OC)cc3)nc2-c2cccc(F)c2)CC1 (stereo not drawn),-17.5
11,CCc1ccc(NC(=O)CNC(=O)[C@@H]2Cc3ccccc3CN2C(=O)OC(C)(C)C)cc1,2.75
12,CCn1nc(NS(=O)(=O)c2ccc(NC(C)=O)cc2)c2cc3cc(C)ccc3nc21,8.67
13,CCOC(=O)Nc1ccc(C(=O)Oc2ccccc2)c(O)c1,12.8
14,Cc1ccc(C(=O)CSc2nnnn2Cc2ccccc2)cc1C,18.1
15,COc1cc(/C=C2/C(=N)N3N=C(CC(=O)N4CCOCC4)SC3=NC2=O)ccc1OCc1ccccc1,16
16,O=C(Oc1ccc(Br)cc1)c1cncc(Br)c1,9.89
17,CCN(CC)CCOc1ncnc2c1oc1ccccc12,-4.09
18,O=C(O)CNC(=O)c1ccccc1,12.8
19,CN(C)Cc1ccc(F)cc1Sc1cc(Cl)ccc1Cl.Cl,12.9

row,Compound,"hERG current change (%, negative = inhibition) at 1uM [%]"
1,COC(=O)c1sccc1NC(=O)c1c(C)noc1C,8.24
2,O=C(CN1CCN(Cc2cccc(F)c2)CC1)Nc1ccccc1F,-1.76
3,CCOC(=O)c1ccc(-c2c(-c3ccc4c(c3)OCO4)noc2-c2ccsc2)cc1F,1.32
4,CN(C(=O)c1ccc(NC(=O)Cc2ccc(NC(=O)C3CCN(C(=O)c4ccccc4)CC3)cc2)cc1)C1CC1,14.9
5,Cc1nn(Cc2ccccc2)c(Cl)c1C(=O)NCc1ccco1,2.6
6,Cc1onc(C(=O)Nc2sc3c(c2C(N)=O)CCCC3)c1[N+](=O)[O-],10.8
7,O=C1C(=O)N(CCCn2ccnc2)C(c2ccc(Cl)cc2)/C1=C(\O)c1ccc2c(c1)OCCO2 (stereo not drawn),17.5
8,COCCCNC(=O)c1cccs1,11.4
9,NP(=O)(OCC(F)(F)F)Oc1ccc(Cl)cc1 (stereo not drawn),6.8
10,CCCC(C)NC(=O)CSCc1ccc(OC)cc1 (stereo not drawn),15
11,COC(=O)CSc1nc(C2CC2)nc2ccccc12,3.01
12,COc1ccc(N(CC(=O)N2CCCCCC2)S(=O)(=O)c2ccccc2)cc1,7.03
13,O=c1cc(C(F)(F)F)nc(SC/C=C/c2ccccc2)[nH]1,7.13
14,COc1cccc(S(=O)(=O)Nc2ccc(C(=O)N3CCCCCC3)cc2)c1,14.1
15,CN(C)/C=C/C(=O)C(Cl)(Cl)Cl,16
16,COc1cccc(N2CCN(CC(=O)NC3=Nc4ccccc4N=C(C)C3c3ccccc3)CC2)c1 (stereo not drawn),5.74
17,COc1cc(O)c(C(CC(=O)N2CCCC(C)C2)c2cc(OC)c(OC)c(OC)c2)c(OC)c1 (stereo not drawn),11.2
18,CC(=O)Nc1ccc(S(=O)(=O)NCC(=O)NC(C)c2ccc(S(N)(=O)=O)cc2)cc1 (stereo not drawn),11.4
19,O=S1(=O)C=C(N2CCCCC2)c2ccccc21,-2.89

row,Compound,"hERG current change (%, negative = inhibition) at 1uM [%]"
1,Cc1ccccc1-c1cc(C(=O)NCc2cccc(C(F)(F)F)c2)nn1CC1CC(c2cccc([N+](=O)[O-])c2)=NO1 (stereo not drawn),11.1
2,CCCn1nnc(NC(=O)c2ccc(Br)o2)n1,11.9
3,CCOc1ccc(CNC(=O)CN2C(=O)C(c3ccccc3)Oc3cccnc32)cc1 (stereo not drawn),2.93
4,CCOC(=O)CNC(=S)N(Cc1ccco1)Cc1ccccc1Cl,7.92
5,Cc1csc(NC(=O)c2ccc(C)c([N+](=O)[O-])c2)n1,-2.03
6,OC(COc1ccccc1)CN(Cc1ccccc1)CC(O)COc1ccccc1 (stereo not drawn),3.76
7,Cc1cc(NC(=O)Cn2cnc3c(cnn3C(C)(C)C)c2=O)no1,8.56
8,Cc1cc(C)nc(SCC(=O)c2ccc(F)cc2)n1,10.1
9,O=c1[nH]c(C2CCN(S(=O)(=O)c3ccccc3)CC2)nc2c1nnn2Cc1ccccc1,12.6
10,COc1ccc(S(=O)(=O)Nc2ccccc2C(=O)N2CCCC2)cc1OC,8.14
11,O=C1N=C(N2CCN(c3ccccc3)CC2)S/C1=C/c1cccs1,-7.01
12,Cc1cc(C)c(C#N)c(N2CCN(CCOc3ccc(Cl)cc3)CC2)n1,2.01
13,O=C(CCCCC(=O)Nc1ccc(F)cc1)Nc1ccc(F)cc1,12.8
14,CS(=O)(=O)/C(C#N)=C/c1cccn1S(=O)(=O)c1ccccc1,14.3
15,C=CCn1cnc2c(oc3ccccc32)c1=O,11.2
16,Cc1ccccc1NC(=O)Cc1nc(CSc2nnc(C3CCCCC3)n2N)cs1,2.59
17,Cc1ccc(NC(=O)CN2c3cccc4cccc(c34)S2(=O)=O)cc1S(=O)(=O)N1CCOCC1,4.03
18,CC(OC(=O)CN1C(=O)NC2(CCCCC2C)C1=O)c1ccccc1 (stereo not drawn),4.46
19,Cc1ccc(S(=O)(=O)NC(=O)NCc2ccccn2)cc1,7.43
